Measured values as given in publication PMC12136788.
Some of the results follow.

T1: UNK ZnF1-3 (human, UniProt Q9C0B0 31-174)
T1 sequence: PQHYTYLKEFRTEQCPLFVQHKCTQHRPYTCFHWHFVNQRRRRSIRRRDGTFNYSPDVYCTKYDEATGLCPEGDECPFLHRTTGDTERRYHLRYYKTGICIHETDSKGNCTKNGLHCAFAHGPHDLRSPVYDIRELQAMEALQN

B1: chr2:153583694:153583695:+_ENSMUSG00000027479_ENSMUST00000028981|perfect_dup|FALSE|FALSE (ssRNA)
RNA: GGGAGUUCUACAGUCCGACGAUCAAAAAACUUCUUGAACCAUUGAACAAAUUCAAAAUUGUCCUGAAAUUUUCCUUUUACUAAUUUAUCCACAGGAAUUAUUUUGUCAACGCCCAUCCUCUUGAAGCCUGCUUGUAGUAUUUUCAACAGAGGAUUGAGCAUCA
B2: 97026774_97028877_2254_3pUTR_ENSMUSG00000001440_ENSMUST00000001479|mouse|control|control (ssRNA)
RNA: GGGAGUUCUACAGUCCGACGAUCAAGCCAACAGCUGCCAAACAUACCUGGUACUCAGCAUAAUUUUUCAGUCCAAUGCCCAGGAAUGGUUUAAAGGCCUCCAUGUACUUGAGGAAUUCACCACCCAACACUUCCACCAGUGUGCAACAGAGGAUUGAGCAUCA
B3: chr17:29398750:29398751:-_ENSMUSG00000024007_ENSMUST00000024802|mus_hu|FALSE|FALSE (ssRNA)
RNA: GGGAGUUCUACAGUCCGACGAUCGUCACCUCCUUGGAUCAUGAAGUCUUUGAUAAUUCUGUGGAAUUUUGUGCCAUUGUAGUAACCUCGACGAGCCAACUCAGCAAAGUUCUUACAGGUCUUUGGAGCAUGCUUCCAGUACAGCAACAGAGGAUUGAGCAUCA
B4: chr8:104447970:104447971:+_ENSG00000164934_ENST00000297579|hu_hu|motif|central (ssRNA)
RNA: GGGAGUUCUACAGUCCGACGAUCAUAUACCUCCCUGCUUCGACUUUUGUCUACAGGAAAGAUUCGAAUAGAUUUAUCGAAACGGGCAGACACAAACUCCUUCCCAGUGGGAGAGUAAUCCACAUCAAGCACUGCAGAUACAUGCAACAGAGGAUUGAGCAUCA
B5: chr1:127303955:127303956:-_ENSMUSG00000026341_ENSMUST00000027579|perfect_dup|motif|central (ssRNA)
RNA: GGGAGUUCUACAGUCCGACGAUCUAUUACUGUACCCGUCAGCGUCCGCUCUCCUACUUGUCUUGAGGUCCAGGAUGCAGCGGAGGCAAGAACAGCCUGCACAGCAAUGUACAAGCCUGGAACAUUGAAGGAUUCAAACAUUAUCAACAGAGGAUUGAGCAUCA
B6: chr14:45754706:45754707:-_ENSMUSG00000021830_ENSMUST00000139526|mus_hu|FALSE|FALSE (ssRNA)
RNA: GGGAGUUCUACAGUCCGACGAUCCAGAACCAGGAAAUUCUGGAAACCUAGUCUGCCACAGGUUACUUUUAACACAAGGUUACUCAGCCUUGGCACGACUACCAUUUCGGGCAGGAUAAUUCUUUGUUGUGGGGCGCUGUCCAACAACAGAGGAUUGAGCAUCA
B7: chr3:100845581:100845582:-_ENSMUSG00000027864_ENSMUST00000102694|mus_hu|FALSE|FALSE (ssRNA)
RNA: GGGAGUUCUACAGUCCGACGAUCCCUGGUGGGGUAUACUUGUUGCCCGUCUUCCCACCACAGGCCCGGGCCAAGGAAAGGCUACUGUCAAUGCAGAAUCUAAUGUUUCUACCAUGUGCAUGGUCCCCUUGGUGGGGAAAACUCCAACAGAGGAUUGAGCAUCA
B8: chr9:49312907:49312908:-_ENSMUSG00000039542_ENSMUST00000166811|mus_mus|motif|central (ssRNA)
RNA: GGGAGUUCUACAGUCCGACGAUCAGCUGGCAUUUGGCAUGCUUCCUAAGAAACAGGAGUCCCCGUGGGAACUGAACUCAGCGGGCCAGAGUGCCACACUCCGCAUAUGGAACAAACACAAACUGAACGGAAAGUAUAACUUAUCAACAGAGGAUUGAGCAUCA
B9: chr4:148551591:148551592:-_ENSMUSG00000063077_ENSMUST00000060537|mus_hu|mus_mus_mus_hu_False|28_58 (ssRNA)
RNA: GGGAGUUCUACAGUCCGACGAUCACCUGACAAAAUUAAAUAUCCCUGUAAAUUAGACAAUAAGCAGCAGGCAACAAAGUCUAUGCUUUGGAAUAUGUGCCAGGAAAAAUCAUGUUUUUUUUAGAUCUCAAGAGACAGUUCACACAACAGAGGAUUGAGCAUCA
B10: chr8:13019134:13019135:+_ENSMUSG00000031442_ENSMUST00000123811|mus_hu|FALSE|FALSE (ssRNA)
RNA: GGGAGUUCUACAGUCCGACGAUCGGGGGCGGUGAGGUGCCCCUUCCUCGGGGCGUCCGGGGGCCGCGCCCUCCCCACGCCACCGCAGCCCCAGACAGCGCGCGGGUCUCCGGCGCCGAGGCCGCGCUACCCCUGCAGGUCGGACAACAGAGGAUUGAGCAUCA
B11: chr17:60770872:60770873:+_ENSG00000011028_ENST00000303375|hu_hu|hu_hu_hu_mus_True|58_98 (ssRNA)
RNA: GGGAGUUCUACAGUCCGACGAUCUCUUUAAAAAAAAUUCCUUUUUUACAAACAAUAAUAGCACAUUUCGAGAAUCAUCAACUACAGUAGAGGGUCCGCUUUGAGUUUUUGUUCACAUCGUCCUGCACUGGGACACGGGGACUGCAACAGAGGAUUGAGCAUCA
B12: 152481611_152481731_4040_3pUTR_ENSMUSG00000039037_ENSMUST00000044278|mouse|control|control (ssRNA)
RNA: GGGAGUUCUACAGUCCGACGAUCCUGGGAGGAGGCUGAUGAUAGCACUGGGGAGAGACGAGAAGGGAACAUACCAAGCCAAGCGAGCAGGGCUCCAAAUACCCCGGAACCACUGGGGUCUGUAAGCAGGGUUGUGUGUCCUGUCAACAGAGGAUUGAGCAUCA
B13: chr10:28884852:28884853:+_ENSG00000095787_ENST00000354911|hu_hu|FALSE|FALSE (ssRNA)
RNA: GGGAGUUCUACAGUCCGACGAUCAGAUGCUCCAUUAGCAUCAAAUGAUUUCUUUGGCUGGUGAUCAGACUGUAGCGUAAAUGGACUAGAAGGAACAGUGCUUGGGGUAGCAGUUGGAUGAACCACUGGUUUGAUGGGGUGCUGCAACAGAGGAUUGAGCAUCA
B14: chr17:62496344:62496345:-_ENSG00000108654_ENST00000581693|hu_mus|FALSE|FALSE (ssRNA)
RNA: GGGAGUUCUACAGUCCGACGAUCCCCAAAAUCUCUCUUAAGCAGAUUAGAGUAGCCUCUGUCAUAGUUUUCCCUGUCUCUAAAGGUAUUAAAUCCACCCCUUUUGCCUGCAGAGUAUCUGUCACGACGAUCGUCCUUCAUGCCCAACAGAGGAUUGAGCAUCA

Biological target: T1, UNK ZnF1-3
Test: nsRBNS (natural sequence RNA bind-n-seq); RBNS binding buffer (assumed for nsRBNS): 25 mM Tris pH 7.5, 150 mM KCl, 3 mM MgCl2, 0.01% Triton X-100, 500 ug/ml BSA, 20 U/ml SUPERase-In, 4 C; UNK is unkempt and MSI1 is Musashi-1; names of the RNAs are library labels; protein concentration not given here; high values mean tight binding

Question: With B1 as the binder, how does the binding signal read?
Answer: 0.847 enrichment R

Question: How did the binding signal turn out when B2 was run?
Answer: 1.05 enrichment R

Question: Which binding signal does the source give for B3 here?
Answer: 0.947 enrichment R

Question: With B4 as the binder, how does the binding signal read?
Answer: 0.63 enrichment R

Question: How did the binding signal turn out when B5 was run?
Answer: 0.898 enrichment R

Question: Which binding signal does the source give for B6 here?
Answer: 0.589 enrichment R

Question: Which binding signal does the source give for B7 here?
Answer: 1.01 enrichment R

Question: B8 was tested. Which binding signal did it give?
Answer: 1.21 enrichment R

Question: B9 was tested. Which binding signal did it give?
Answer: 1.07 enrichment R

Question: B10 was tested. Which binding signal did it give?
Answer: 0 enrichment R

Question: B11 was tested. Which binding signal did it give?
Answer: 1.3 enrichment R

Question: Which binding signal does the source give for B12 here?
Answer: 1.42 enrichment R

Question: For B13, which binding signal is on record?
Answer: 1.19 enrichment R

Question: With B14 as the binder, how does the binding signal read?
Answer: 1.13 enrichment R
